Data published in PubChem BioAssay AID686970 (National Center for Advancing Translational Sciences (NCATS), 2013).
Out of some 360,000 compounds screened, about 6,000 (1.7%) were called active. This list was built around the results that the source calls inconclusive (neither active nor inactive); the mix of calls is not that of the screen. Calls come from the whole dose curve; as a rule, active = well fitted cell-killing curve with a large enough effect; inconclusive = small, poorly fitted or top-dose-only effect, or effect the other way; inactive = flat fitted curve, though single readings scatter. Potencies of inconclusive entries are left out as doubtful fits.

Assay: qHTS for induction of synthetic lethality in tumor cells producing 2HG: qHTS for the HT-1080-NT fibrosarcoma cell line;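 note: NT is the 2HG producing partner of a matched IDH1 knockdown line; nearly all actives have a fitted effect of over 55% in size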
Conditions: HT-1080-NT fibrosarcoma viability, CellTiter-Glo ATP luminescence, 48 h; series mostly up to 46.1 µM
How it was run: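 Fibrosarcoma NT cells, 750 per well in 5% FBS RPMI, were exposed to compound for 48 hours. Viability: CellTiter-Glo luminescence.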
Potency is the fitted concentration of half-maximal effect; tags give direction and shape of the fitted curve.

Question: With `Cc1ccc(C2N(c3cccc(Cl)c3)C(=O)N3CCCN23)cc1` (stereo not given) as the compound, how does the Potency read?
Answer: inactive

Question: With `Cc1ccc(N/N=C/c2c(O)cc(C)oc2=O)cc1` as the compound, how does the Potency read?
Answer: inconclusive [cytotoxic, single point]

Question: For `O=C(CSC1=NCCN1)NC(c1ccccc1)c1ccccc1`, which Potency is on record?
Answer: inconclusive [cytotoxic, single point]

Question: For `Cc1oc(-c2ccc(Cl)cc2)nc1CN1CCC(C(=O)NCc2cccs2)CC1`, which Potency is on record?
Answer: active: 20.6 µM

Question: Which Potency does the source give for `O=c1cc(-c2ccccc2)[nH]n1-c1ccccc1` here?
Answer: inconclusive [cytotoxic, partial curve, poor fit]

Question: Which Potency does the source give for `CC(C)c1nnc(NC(=O)COc2ccc3c(c2)OCO3)s1` here?
Answer: inconclusive [cytotoxic, single point]

Question: Which Potency does the source give for `COc1ccc(C(=O)/C=C/c2ccc(N(C)C)cc2)c(OC)c1` here?
Answer: inconclusive [cytotoxic, single point]

Question: With `COC(=O)CN1C(=O)C2(C(C#N)=C(N)Oc3c2c(C)nn3-c2ccccc2)c2ccccc21` (stereo not given) as the compound, how does the Potency read?
Answer: inconclusive [cytotoxic, single point]

Question: Which Potency does the source give for `Cn1c2ccccc2c2cc(/C=N/NC(=O)c3ccc(N)cc3)ccc21` here?
Answer: inconclusive [cytotoxic, partial curve]

Question: Which Potency does the source give for `COc1ccc(C2=CN(Cc3ccccc3)C(c3ccccc3)CC2=O)cc1` (stereo not given) here?
Answer: inconclusive [rising, single point]

Question: For `COc1ccc(S(=O)(=O)N2CCN(C(=O)c3ccc([N+](=O)[O-])o3)CC2)cc1`, which Potency is on record?
Answer: inconclusive [cytotoxic, single point]

Question: Which Potency does the source give for `O=c1oc2ccc(Br)cc2cc1S(=O)(=O)c1ccc(F)cc1` here?
Answer: inconclusive [cytotoxic, single point]

Question: Which Potency does the source give for `CC(C)NC(=O)C1CC(=O)N(CCc2ccc(F)cc2)C1` (stereo not given) here?
Answer: inactive

Question: Which Potency does the source give for `COc1ccc(OC)c(C=C2CCc3ccccc3C2=O)c1` here?
Answer: inconclusive [cytotoxic, partial curve]

Question: Which Potency does the source give for `O=C(/C=C/c1ccc(Br)cc1)N1CCN(c2cccc(C(F)(F)F)c2)CC1` here?
Answer: inconclusive [cytotoxic, partial curve]

Question: Which Potency does the source give for `O=C(/C=C/c1ccc(Cl)cc1Cl)c1nc2ccccc2[nH]1` here?
Answer: inconclusive [cytotoxic, single point]

Question: For `O=C(NCCc1ccccc1)C1CCN(S(=O)(=O)c2ccc(-c3nn[nH]n3)cc2)CC1`, which Potency is on record?
Answer: inactive

Question: With `COc1cccc(Nc2ccc([N+](=O)[O-])c3nonc23)c1` as the compound, how does the Potency read?
Answer: active: 14.6 µM

Question: Which Potency does the source give for `O=Cc1c(-[n+]2ccccc2)nc([O-])n1-c1ccccc1` here?
Answer: inactive

Question: Which Potency does the source give for `CN1C(=O)N(CC(=O)Nc2cccc(S(=O)(=O)N(C)c3ccccc3)c2)C(=O)C12CCCCC2` here?
Answer: inactive

Question: With `Cc1ccc2nc(-c3ccc(C#N)cc3)c(Cc3ccccc3C(F)(F)F)n2c1` as the compound, how does the Potency read?
Answer: inconclusive [cytotoxic, single point]

Question: For `O=C(CC1Sc2ncnn2C1=O)Nc1ccc(Br)cc1` (stereo not given), which Potency is on record?
Answer: inactive

Question: For `C[C@@H]1C[C@H]2[C@@H]3C[C@H](F)C4=CC(=O)C=C[C@]4(C)[C@@]3(F)[C@@H](O)C[C@]2(C)[C@@]1(O)C(=O)COC(=O)C(C)(C)C`, which Potency is on record?
Answer: inconclusive [rising, partial curve]

Question: For `Cc1ccc(Nc2c([N+](=O)[O-])cc(C(=O)N3CC(=O)Nc4ccccc43)cc2[N+](=O)[O-])c(C)c1`, which Potency is on record?
Answer: inactive

Question: With `O=C(CSc1nnc(C2CC2)n1CC1CCCO1)Nc1cccc(Cl)c1` (stereo not given) as the compound, how does the Potency read?
Answer: inactive

Question: With `CCOc1cc(CNCc2ccncc2)cc(Br)c1OCc1ccccc1F` as the compound, how does the Potency read?
Answer: inconclusive [cytotoxic, partial curve]

Question: Which Potency does the source give for `CC1CCN(c2c(NCC3CCC(C(=O)NCCc4ccc(Cl)cc4)CC3)c(=O)c2=O)CC1` (stereo not given) here?
Answer: inactive

Question: For `CCCCNc1nccnc1-c1cccc(C=O)c1`, which Potency is on record?
Answer: inconclusive [rising, single point]

Question: Which Potency does the source give for `O=c1[nH]c(Nc2ccc3c(c2)OCCO3)nnc1Cc1ccccc1` here?
Answer: inactive

Question: Which Potency does the source give for `COc1ccc(NC(=O)CC(=O)Nc2ccc(OC)cc2)cc1` here?
Answer: inconclusive [cytotoxic, single point]

Question: For `O=c1c(Cl)cc(Cl)nn1-c1ccccc1`, which Potency is on record?
Answer: inconclusive [cytotoxic, single point]

Question: For `CC(O)CNCCOc1cccc(Oc2ccccc2)c1` (stereo not given), which Potency is on record?
Answer: inconclusive [cytotoxic, partial curve]

Question: With `Cc1ccccc1CSc1nnc(-c2ccccn2)n1C` as the compound, how does the Potency read?
Answer: inconclusive [rising, partial curve]

Question: For `CC(Oc1ccc(Br)cc1)c1nc2c3ccccc3nc(=S)n2[nH]1` (stereo not given), which Potency is on record?
Answer: inconclusive [cytotoxic, single point]

Question: Which Potency does the source give for `COc1cccc2c1C(=O)c1c(O)c3c(c(O)c1C2=O)CC(O)(C(=O)CO)CC3OC1CC(N(C)C)C(O)C(C)O1` (stereo not given) here?
Answer: inconclusive [cytotoxic, full curve, poor fit]

Question: With `COC(=O)c1c(N2C(=O)CC(Sc3ccccc3C(=O)O)C2=O)sc(C)c1C` (stereo not given) as the compound, how does the Potency read?
Answer: inactive

Question: With `Cc1ccc(CN=C(N)Nc2nc(C)cc(C)n2)cc1` as the compound, how does the Potency read?
Answer: active: 7.31 µM

Question: For `O=C1C(=O)c2ccccc2C(O)=C1C1CCC(c2ccc(Cl)cc2)CC1` (stereo not given), which Potency is on record?
Answer: inconclusive [rising, single point]

Question: With `Cc1ccc(C2=CC(=O)C[C@H](c3ccc4c(c3)OCO4)C2)cc1` as the compound, how does the Potency read?
Answer: inconclusive [cytotoxic, single point]

Question: Which Potency does the source give for `CC(=O)N[C@H]1C(O)O[C@H](CO)[C@@H](O)[C@@H]1O` (stereo not given in full) here?
Answer: inconclusive [rising, partial curve]

Question: For `CCn1c2ccccc2c2cc(NC(=O)c3cc(OC)c(OC)c(OC)c3)ccc21`, which Potency is on record?
Answer: active: 0.82 µM

Question: For `O=C(CCl)Nc1cccn2ncnc12`, which Potency is on record?
Answer: inconclusive [cytotoxic, single point]

Question: With `Cn1cc(C2CC(c3ccccc3)=NN2C(=O)c2ccccc2)c2ccccc21` (stereo not given) as the compound, how does the Potency read?
Answer: inactive

Question: With `COc1ccc(S(=O)(=O)N2CCCCC2)cc1NS(=O)(=O)c1ccccc1` as the compound, how does the Potency read?
Answer: inactive

Question: Which Potency does the source give for `Clc1ccc2nc(-c3ccc(Br)s3)cn2c1` here?
Answer: inconclusive [cytotoxic, single point]
